Here are results for 86 sequences from the supplement of paper PMC3334620.

In all, about 33,000 sequences were measured (“E-score (-0.5 to 0.5)”: median about -0.032, highest 2% from about 0.36 on). Some of the results follow.

This test deals with T1, Sko1 (UniProt Q02100).
T1 sequence: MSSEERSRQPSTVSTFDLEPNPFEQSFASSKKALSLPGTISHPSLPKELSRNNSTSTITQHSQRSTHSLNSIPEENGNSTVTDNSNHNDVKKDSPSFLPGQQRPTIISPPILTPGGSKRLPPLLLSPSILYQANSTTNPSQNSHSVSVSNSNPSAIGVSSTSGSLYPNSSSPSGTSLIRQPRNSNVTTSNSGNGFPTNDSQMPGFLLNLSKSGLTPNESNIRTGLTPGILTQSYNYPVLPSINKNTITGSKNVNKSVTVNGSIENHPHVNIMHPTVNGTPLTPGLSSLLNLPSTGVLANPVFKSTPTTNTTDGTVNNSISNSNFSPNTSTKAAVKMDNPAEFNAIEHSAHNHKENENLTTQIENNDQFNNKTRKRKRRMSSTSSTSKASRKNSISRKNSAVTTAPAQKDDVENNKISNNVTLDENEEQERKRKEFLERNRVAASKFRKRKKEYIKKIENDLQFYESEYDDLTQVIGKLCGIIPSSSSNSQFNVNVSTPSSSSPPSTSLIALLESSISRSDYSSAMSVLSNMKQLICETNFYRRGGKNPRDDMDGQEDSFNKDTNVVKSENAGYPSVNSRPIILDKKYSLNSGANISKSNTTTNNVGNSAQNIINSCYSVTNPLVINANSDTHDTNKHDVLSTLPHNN
Put plainly: PBM E-score (8-mer binding enrichment) (E-score (-0.5 to 0.5)); higher = stronger / more preferred TF binding; most listed sequences are background and not binding sites. The following applies: protein concentration: 200 nM; construct: GST-full length. The method, then: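 Universal 'all 10-mer' protein binding microarrays (Agilent AMADID 015681) probed with GST-tagged S. cerevisiae TFs (full-length or DBD) made by in vitro transcription/translation (PURExpress), about 100-200 nM. Bound TF was detected with fluorescent anti-GST. Each ungapped 8-mer (which stands for itself and its reverse complement) is scored by the PBM enrichment score (E-score), a modified Wilcoxon-Mann-Whitney statistic from -0.5 to +0.5, computed with the Universal PBM Analysis Suite. Scale: above 0.35 generally sequence-specific binding.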
For the sequence AATTAGCA, the “PBM E-score” value is 0.0703.
The result for ACGTGATA reads 0.409.
The result for AAAAAAGA reads 0.0782; that for AACTCGGT, -0.00192.
The result for AATGAAAT reads 0.281; that for GCTCTACC, -0.222.
On to AAAAAGAA, for which the “PBM E-score” value was found to be 0.0522.
Under AGTATCCC stands -0.257; under AACATTGT, 0.105.
The result for TCTCTGAA reads -0.0916; that for AATTACGG, 0.26; that for ATAGAATC, 0.0227.
For the sequence ACATGATG, the “PBM E-score” value was determined as 0.177.
The result for GTTTTTAA reads 0.206.
The result for AACCCATA reads 0.00986.
Under ACCGTCGG stands -0.164; under ATCGCCGG, -0.118; under ACCCCTCG, -0.159.
For GCTCCACC, the “PBM E-score” value was -0.282.
Consider AGCTCAAC, for which the “PBM E-score” value was -0.147.
Under AGTGACTG stands -0.0295; under AGTGCTGC, 0.00774; under CAGTTATC, -0.163.
The result for AAACTCTA reads 0.0457; that for CAGGTTAA, -0.057; that for CTATGAGA, -0.111.
The result for AAAATCTA reads 0.123.
As for ATGATGGC, the “PBM E-score” value amounted to 0.0223.
Under AGCTACAA stands -0.122; under ACGAGAGA, -0.0589.
The result for AAAATAGA reads 0.104; that for ATTCAGTC, 0.0357.
Under AAATCACA stands 0.0912.
For AGCGGCCA, the “PBM E-score” value was -0.209.
Under CGATCCCC stands -0.258; under GATGCTAC, 0.0613.
Regarding CCCGTGCC, the “PBM E-score” value was -0.178.
On to GAGACTCC, for which the “PBM E-score” value is -0.111.
The result for CGCTGTCC reads -0.0275; that for CAAAAGTG, 0.0902.
The result for AGGAGAGA reads -0.0928; that for GTCAAGTA, 0.0739.
The result for CGAAAGTC reads 0.11; that for AAAGAGTG, -0.0846; that for CACTGCGC, -0.0359.
On to GTCCACTA, for which the “PBM E-score” value was -0.0871.
On to AGTAAAAG, for which the “PBM E-score” value was 0.181.
Under AACCCAGG stands -0.122.
Regarding ATTGCGAA, the “PBM E-score” value turned out to be 0.175.
Under AGTCGGTA stands -0.174; under ACTCTACC, -0.137; under TGGAAGAA, 0.0802.
The result for ATCATGCC reads 0.131.
Under GGTGGTAA stands 0.0085; under ATAATTAG, 0.202; under ACCATGTG, 0.0252.
On to TCCCATCA, for which the “PBM E-score” value was -0.0921.
For AAAGCGTC, the “PBM E-score” value is 0.0125.
Regarding GCGTGGAA, the “PBM E-score” value was -0.0652.
Under GTACAAAC stands 0.12.
The result for TATGGTAA reads 0.11; that for GGCATGTA, 0.0852; that for GTAAGAAA, 0.0895.
Under CATCCACC stands -0.166.
For the sequence CCAGACCG, the “PBM E-score” value is -0.276.
Under AACGAGTC stands -0.0563; under AGCATTGG, -0.217.
AGCCTCGC: the “PBM E-score” value is -0.154.
The result for CATAACCA reads 0.0546.
The result for GTGAGTCA reads 0.235.
Under ATTAGTGA stands 0.042; under AGCCCGGC, -0.272; under AAAGTACT, -0.0356.
CCCACAGC: the “PBM E-score” value is -0.124.
Under GCGGAATA stands 0.0622; under GCATGAAC, -0.065.
Under CGGCGTTC stands -0.128.
Consider ATTGATAA, for which the “PBM E-score” value amounted to 0.161.
Under CCTAGTAG stands -0.158; under CCCGACGA, -0.112.
The result for CCTGGTAA reads -0.124; that for ACCATCGT, -0.0577.
Under CAGATGGG stands -0.259.
For CAAGACGG, the “PBM E-score” value is -0.218.
As for ACCGAATA, the “PBM E-score” value was determined as 0.161.
Regarding GTCCCGGA, the “PBM E-score” value was -0.143.
